Screen size: about 48,000 compounds; about 550 (1.1%) were called active. Roughly 4% stayed inconclusive and do not appear here. Rule as the data show it: active = potency below about 15 µM; inconclusive = mostly about 16 µM to 33 µM; inactive = weaker than that. Some of the results follow. Starred links: 1 amine or outer side, 2 acyl side, 3 side chain; linkers in the order of their positions; H or OH if unused. Residues, ends and D or L forms follow the SMILES beside them. *: point of attachment. CO = O=C([*:1])[*:2]; NHPh = c1ccc(N*)cc1
Target: Lysosomal acid glucosylceramidase (Homo sapiens) (UniProt P04062)
Experiment: Glucocerebrosidase;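 also: the screen sought inhibitors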
Settings: purified enzyme, resorufin glucoside fluorescence (screen aimed at inhibitors), 20 min; series mostly up to 77 µM
Method in brief: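 Wild-type enzyme at 0.2 nM final in 50mM citric acid/KH2PO4, 10mM sodium taurocholate, 0.01% tween-20, pH 5.9, with resorufin beta-D-glucopyranoside at 30 uM final. Compounds titrated, 20 min at RT, red fluorescence read; AC50 from titration.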
Potency is read from the fitted curve at half-maximal effect.

Chain of UniProt P04062 (P04062 whole entry, looked up): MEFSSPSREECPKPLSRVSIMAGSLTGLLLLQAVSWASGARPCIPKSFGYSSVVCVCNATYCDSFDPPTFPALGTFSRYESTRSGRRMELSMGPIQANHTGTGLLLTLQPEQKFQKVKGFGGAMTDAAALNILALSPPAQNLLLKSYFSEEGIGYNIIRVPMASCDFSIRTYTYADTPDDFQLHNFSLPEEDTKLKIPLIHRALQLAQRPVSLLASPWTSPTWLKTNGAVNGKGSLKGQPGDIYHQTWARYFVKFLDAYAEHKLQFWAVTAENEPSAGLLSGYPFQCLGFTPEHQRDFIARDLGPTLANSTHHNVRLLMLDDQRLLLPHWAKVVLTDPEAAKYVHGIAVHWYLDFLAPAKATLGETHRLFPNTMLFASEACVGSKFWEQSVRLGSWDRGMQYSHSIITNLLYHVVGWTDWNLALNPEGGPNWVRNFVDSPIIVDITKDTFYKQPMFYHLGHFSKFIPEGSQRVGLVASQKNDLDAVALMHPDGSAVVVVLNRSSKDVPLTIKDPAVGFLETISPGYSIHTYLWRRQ

Potency, inactive:
O=C(Nc1ccc(CN2CCOCC2)cc1)c1cc2ccccc2o1 > 76.9 µM, CN(C)c1nc(N)nc(/C(C#N)=C/C2CC3C=CC2C3)n1 (centres undefined) > 76.9 µM, CCOc1ccc(OCC)c2sc(C)nc12 > 76.9 µM, CCC(=O)N1CN(S(=O)(=O)c2ccc(C)cc2)CC1C (centres undefined) > 76.9 µM, CC(=O)N(C(C)=O)c1c(C#N)c(C)n(-c2ccccc2)c1C(=O)c1ccccc1 > 76.9 µM, CC(C)n1c(=O)[nH]c2ccccc21 > 76.9 µM, CCN(CC)S(=O)(=O)c1ccc(-c2nnc(SCC(=O)Nc3nc(C)cs3)o2)cc1 > 76.9 µM, COc1ccc(NC2C=CS(=O)(=O)C2)c(OC)c1 (centres undefined) > 76.9 µM, O=C(O)CCCCCNC(=O)CCn1nnc2ccccc2c1=O > 76.9 µM, COc1ccccc1Nc1nc(C2(C)CCC(=O)O2)cs1 (centres undefined) > 76.9 µM, CN(C)C(=O)N1CCN(C(=O)c2ccccc2Sc2ccccc2C#N)CC1 > 76.9 µM, COc1ccc(NCc2nnc(SCC(=O)N3CCCc4ccccc43)n2C)cc1 > 76.9 µM, Cc1ccc(C(=O)Nc2ccccc2N2CCN(C(=O)C(C)C)CC2)cc1C > 76.9 µM, Cc1cccc2sc(NC(=O)C3CCCO3)nc12 (centres undefined) > 76.9 µM, CCc1ccccc1NC1=NCC(=O)N1C1CCCCC1 > 76.9 µM, O=C(O)CCn1c(=O)sc2ccccc21 > 76.9 µM, CCCc1nc2oc3c(NCCN(C)C)ncnc3c2c2c1CCCC2 > 76.9 µM, Cc1c(NC(=O)CSc2nc(-c3ccco3)cc(C(F)(F)F)n2)c(=O)n(-c2ccccc2)n1C > 76.9 µM, CCOc1cc(C2/C(=C(/O)c3ccc(OC(C)C)cc3)C(=O)C(=O)N2CCCOC)ccc1O (centres undefined) > 76.9 µM, O=c1cc(CO)oc(CN2CCN(c3ccccc3F)CC2)c1O > 76.9 µM, NC(=O)N1CC(O)CC1C(=O)Nc1ccc(Cl)c(Cl)c1 (centres undefined) > 76.9 µM, Clc1ccc(-c2nnc(NC3=NCCCCC3)o2)cc1 > 76.9 µM, C=CCN1C(=O)C2(/C(=C(\O)c3ccc4c(c3)OCCO4)C(=O)C(=O)N2CCCOC)c2ccccc21 (centres undefined) > 76.9 µM, CCOC(=O)c1sc2nc(-c3ccco3)c3c(c2c1N)CC(C)(C)OC3, CC(C)(C)C(=O)NC1(C(F)(F)F)C(=O)Nc2c1c(=O)[nH]c(=O)n2Cc1ccco1 (centres undefined) > 76.9 µM, Cc1noc(C)c1S(=O)(=O)N1CCC(C(=O)Nc2ccc(OC(F)(F)F)cc2)CC1 > 76.9 µM, CCCCNC(=O)Nc1ccnn1C1CCCCC1 > 76.9 µM, CCc1cc(=O)oc2cc(OCC(=O)O)c(Cl)cc12 > 76.9 µM, O=C(COC(=O)CNC(=O)c1ccc(Br)o1)Nc1ccc2c(c1)OCCO2 > 76.9 µM, Cc1ccc(N(C(=O)CNC(=O)c2ccco2)C(C(=O)NC2CCCC2)c2cccnc2)cc1C (centres undefined) > 76.9 µM, Cc1ccccc1-n1nc2c(c1NC(=O)c1cc3ccccc3oc1=O)CS(=O)C2 (centres undefined) > 76.9 µM, CO/C=C/C#CC1(O)CCN(C)CC1 > 76.9 µM, CC1(C)CC(=O)C=C(NCC(=O)O)C1 > 76.9 µM, COC(=O)C1CCN(Cc2cc(=O)oc3cc(OC)ccc23)CC1 > 76.9 µM, COc1ccccc1NS(=O)(=O)c1ccc(NC(C)=O)cc1 > 76.9 µM, CN(C)S(=O)(=O)c1cccc(-c2nnc(SCc3ccc4c(c3)OCCO4)o2)c1 > 76.9 µM, Cc1noc(C)c1S(=O)(=O)N(C)CC(=O)NCc1ccccc1 > 76.9 µM, N#C/C(=C1/CCCCCN1)c1nc2ccccc2[nH]1 > 76.9 µM, O=C(NC(Cc1ccccc1)C(=O)N1CCN(c2ccccn2)CC1)c1ccco1 (centres undefined) > 76.9 µM, N#CCCN1CCN(C2=NC(=O)C(=C3CCCCC3)S2)CC1 > 76.9 µM, Cc1c(NC(=O)CCC(=O)N2CCCCC2)c(=O)n(-c2ccccc2)n1C > 76.9 µM, N#CCCN1CCN(C(=S)c2ccc(-c3cc(Cl)ccc3Cl)o2)CC1 > 76.9 µM, O=C(O)CCSc1nc2ccc(Br)cc2[nH]1 > 76.9 µM, Cn1cccc1C(=O)OCc1csc(-c2ccccc2)n1 > 76.9 µM, Cc1cc(N2CCCC2=O)c(N)cc1N > 76.9 µM, COC(=O)c1ccccc1NC(=O)c1cccs1 > 76.9 µM, CCOC(=O)N1CCN(C(=O)CCCOc2ccccc2)CC1 > 76.9 µM, Cc1cc(C)n2cc(CSc3nnnn3-c3ccccc3C)nc2n1 > 76.9 µM, Cc1ccc(Nc2nnc(SCc3cc(=O)n4ccsc4n3)s2)c(C)c1 > 76.9 µM, CCn1c(N2CCN(CC(=O)c3c[nH]c4ccccc34)CC2)nc2c1c(=O)[nH]c(=O)n2C > 76.9 µM, Cc1cc(=O)[nH]c2c1c(C)nn2-c1ccccc1 > 76.9 µM, COC(=O)CNC(=O)CNC(=O)Nc1ccccc1 ({NHPh-CO}-Gly-Gly-OMe) > 76.9 µM, COc1ccc(-n2cnnc2SCCC#N)cc1 > 76.9 µM, COc1ccc(OC)c(N/C(C)=C/C(=O)c2ccc(C)o2)c1 > 76.9 µM, Cc1nn(C)c(C)c1S(=O)(=O)N1CCCC(C(=O)N2CCN(c3ccc(Cl)cc3)CC2)C1 (centres undefined) > 76.9 µM, CC(C)NS(=O)(=O)c1ccc(OCC(=O)NCc2cccnc2)cc1 > 76.9 µM, c1nc2sc3c(c2c2nnnn12)CCCC3 > 76.9 µM, CCCCCC(=O)N(O)C1CC(=O)N(c2ccccc2)C1=O (centres undefined) > 76.9 µM, O=C(COC(=O)c1ccc[nH]c1=O)c1ccc(Cl)s1 > 76.9 µM, COC(=O)Nc1c(C)n(C)n(-c2ccccc2)c1=O > 76.9 µM, O=C(NCC(=O)N(Cc1ccco1)C(C(=O)NC1CCCCC1)c1cccnc1)c1ccco1 (centres undefined) > 76.9 µM, COc1ccc(OC)c(S(=O)(=O)NCc2ccccc2)c1 > 76.9 µM, CCCC(=O)Nc1cccc(NC(=O)c2ccc3c(c2)OCCO3)c1 > 76.9 µM, Nc1c(N2CCCC2)cc(Cl)c2nonc12 > 76.9 µM, N#CCSc1nnc2c(Cl)cc(Cl)cn12 > 76.9 µM, Cc1csc(=O)n1CC(=O)OCc1cccc2ccccc12 > 76.9 µM, Cn1nnc(C(O)CN2CCOCC2)n1 (centres undefined) > 76.9 µM, CCOC(=O)Cn1c(C)c(C#N)c2ccccc21 > 76.9 µM, CCOc1ccc(-c2noc(=O)[nH]2)cc1 > 76.9 µM, COC(=O)c1ccc(CSc2ccc3nnc(-c4ccc(OC)c(OC)c4)n3n2)o1 > 76.9 µM, Cc1noc2nc(-c3cccs3)cc(-c3nnc4n3CCCCC4)c12 > 76.9 µM, CCN(CC)c1ccc(NC(=O)c2cc3ccccc3o2)c(C)c1 > 76.9 µM, CCCCC(=O)NCCNc1nc2c(c(=O)n(C)c(=O)n2C)n1Cc1ccccc1 > 76.9 µM, CC(=O)N(C(C)=O)c1c(N2CCOCC2)c2ccccc2oc1=O > 76.9 µM, Cc1ccc2c(c1)NCC(C(=O)NC1CCCCC1)O2 (centres undefined) > 76.9 µM, CCN(CC(=O)NC)S(=O)(=O)c1ccc(Br)cc1 > 76.9 µM, CC(=O)N=C1SC2CS(=O)(=O)CC2N1c1ccccc1Cl (centres undefined) > 76.9 µM, Cc1ccc2oc(C(=O)Nc3c(C)n(C)n(-c4ccccc4)c3=O)c(C)c2c1 > 76.9 µM, Cc1cc(C(=O)OCC(=O)N(C)C2CCS(=O)(=O)C2)c(C)n1-c1ccccc1 (centres undefined) > 76.9 µM, CCOc1cc(CN2CCCCC2)ccc1OC > 76.9 µM, CCCCCOc1ccc(NS(C)(=O)=O)cc1 > 76.9 µM, [O-][n+]1onc2c1C(N1CCOCC1)CCC2N1CCOCC1 (centres undefined) > 76.9 µM, C#CCNc1nc(C(C)C)nc2c1nnn2Cc1ccccc1F > 76.9 µM, O=C(CSc1cccc2cccnc12)N1CCCC1 > 76.9 µM, O=C(CSc1nnc(CNc2ccccc2)o1)c1ccc2c(c1)OCCO2 > 76.9 µM, Cc1noc(C)c1CSCC(=O)OCC(=O)Nc1sccc1C#N > 76.9 µM, COc1ccc(C2Nc3ccccc3C(=O)N2O)cc1OC (centres undefined) > 76.9 µM, Cc1ccc2nc(CCc3nc4ccc(C)cc4o3)oc2c1 > 76.9 µM, Cn1c(=O)c2c(nc(Sc3nc4ccccc4n3CC(=O)N3CCCCC3)n2C)n(C)c1=O > 76.9 µM, CCOc1ccc(NS(=O)(=O)N(C)C)cc1 > 76.9 µM, CCOC(=O)Cn1c2c(c(=N)c3ccccc31)CCC2 > 76.9 µM, O=C(O)C1C2CCC(O2)C1C(=O)NCCC1=CCCCC1 (centres undefined) > 76.9 µM, CCn1ncc(Br)c1C(=O)Nc1sc2c(c1C(=O)OC)CCC2 > 76.9 µM, O=C(NCCCN1CCOCC1)c1coc2ccccc2c1=O > 76.9 µM
